Laboratory results: PubChem BioAssay (NCI)
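Method: 48-hour compound exposure of cells in 96-well plates, five concentrations, linear interpolation of endpoints. Here, GI50 denotes the concentration required for 50% inhibition of growth.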 A number of entries come with more than one value. This list holds those alone. An entry can have further records. The tests behind the records often covered other concentration ranges, not given here; some values may only mark the edge of a range.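 The concentration for full growth arrest is given as TGI.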 What stands in brackets tells the records apart. The letters are not those of the source and start again with each entry.

How the values were obtained:
Experiment in all cases: NCI-60 cell line screen, 48 h
UO-31 renal = tested on: UO-31 renal
HL-60(TB) leukemia = tested on: HL-60(TB) leukemia
HOP-92 NSCLC = tested on: HOP-92 NSCLC
OVCAR-4 ovarian = tested on: OVCAR-4 ovarian
SK-MEL-2 melanoma = tested on: SK-MEL-2 melanoma
HT29 colon = tested on: HT29 colon
K-562 leukemia = tested on: K-562 leukemia
A498 renal = tested on: A498 renal
KM12 colon = tested on: KM12 colon
T-47D breast = tested on: T-47D breast
HCT-15 colon = tested on: HCT-15 colon
NCI-H23 lung = tested on: NCI-H23 lung
NCI-H226 lung = tested on: NCI-H226 lung
SF-268 CNS = tested on: SF-268 CNS
SK-OV-3 ovarian = tested on: SK-OV-3 ovarian
SNB-75 CNS = tested on: SNB-75 CNS
CCRF-CEM leukemia = tested on: CCRF-CEM leukemia
SK-MEL-28 melanoma = tested on: SK-MEL-28 melanoma
NCI/ADR-RES ovarian = tested on: NCI/ADR-RES ovarian
NCI-H460 lung = tested on: NCI-H460 lung
HCT-116 colon = tested on: HCT-116 colon
DMS 273 small cell lung = tested on: DMS 273 small cell lung
MALME-3M melanoma = tested on: MALME-3M melanoma
CAKI-1 renal = tested on: CAKI-1 renal
MDA-MB-435 = tested on: MDA-MB-435
OVCAR-3 ovarian = tested on: OVCAR-3 ovarian
UACC-257 melanoma = tested on: UACC-257 melanoma
OVCAR-8 ovarian = tested on: OVCAR-8 ovarian
LOX IMVI melanoma = tested on: LOX IMVI melanoma
M14 melanoma = tested on: M14 melanoma
UACC-62 melanoma = tested on: UACC-62 melanoma
SNB-19 CNS = tested on: SNB-19 CNS
U251 CNS = tested on: U251 CNS

N#Cc1c(N)n2c(nc1=Nc1ccc(Cl)cc1)sc1cc(Cl)ccc12
GI50 (UO-31 renal): 1.89 µM and > 100 µM
TGI (UO-31 renal): 6.73 µM and > 100 µM
GI50 (HL-60(TB) leukemia): 6.16 µM and > 100 µM
GI50 (HOP-92 NSCLC): 1.82 µM and > 100 µM
TGI (HOP-92 NSCLC): 5.05 µM and > 100 µM

O=C1NC2C(=CC(O)C(O)C2O)c2cc3c(cc21)OCO3 (stereo unspecified)
TGI (OVCAR-4 ovarian): 30.6 µM [1 test] and 2.28 µM [mean of 2 tests]
GI50 (HL-60(TB) leukemia): 2.63 nM [1 test] and 78.3 nM [mean of 3 tests]
TGI (HOP-92 NSCLC): 805 nM, 2.41 µM, 10.6 µM

COc1ccc2c(c1)[nH]c(=O)c1c3ccccc3cn21
GI50 (SK-MEL-2 melanoma): 158 nM and 1.92 µM
TGI (HT29 colon): 1.48 µM and > 100 µM
TGI (K-562 leukemia): 1.02 µM and 15.9 µM
TGI (A498 renal): 1.36 µM [1 test] and 16.1 µM [mean of 2 tests]
TGI (KM12 colon): 1.5 µM [1 test] and > 31.2 µM [mean of 2 tests]
GI50 (T-47D breast): 48.3 nM and 38.2 µM
TGI (T-47D breast): 4.6 µM and > 100 µM
TGI (HCT-15 colon): 1.14 µM [1 test] and 27 µM [mean of 2 tests]
GI50 (OVCAR-4 ovarian): 90.9 nM [1 test] and 6.39 µM [mean of 2 tests]
TGI (OVCAR-4 ovarian): 5.09 µM [1 test] and > 51.3 µM [mean of 2 tests]
GI50 (NCI-H23 lung): 42.2 nM and 440 nM
GI50 (NCI-H226 lung): 45.3 nM [1 test] and 974 nM [mean of 2 tests]
TGI (NCI-H226 lung): 522 nM [1 test] and 18.4 µM [mean of 2 tests]
TGI (SF-268 CNS): 2.98 µM [1 test] and 210 nM [mean of 2 tests]
GI50 (SK-OV-3 ovarian): 38.8 nM and 5.14 µM
TGI (SK-OV-3 ovarian): 1.63 µM and > 100 µM
GI50 (SNB-75 CNS): 27.5 nM [1 test] and 6.4 µM [mean of 2 tests]
TGI (SNB-75 CNS): 83.9 nM [1 test] and 15.3 µM [mean of 2 tests]
TGI (CCRF-CEM leukemia): 1.44 µM [1 test] and 77.6 nM [mean of 2 tests]
GI50 (SK-MEL-28 melanoma): 52.9 nM and 1.24 µM
TGI (SK-MEL-28 melanoma): 2.54 µM and 27.1 µM

COc1cc2c(c(OC)c1OC)-c1ccc(OC)c(=O)cc1[C@@H](NC(C)=O)CC2
TGI (NCI/ADR-RES ovarian): 5.31 µM, 2.59 µM [sample A] and 4.51 µM [sample B] and > 31.2 µM [sample C]
TGI (SK-MEL-2 melanoma): 6.25 nM [sample A, 1 test] and 52 µM [sample A, mean of 4 tests] and 506 nM [sample A, mean of 5 tests] and > 100 µM [sample B, mean of 2 tests]
TGI (NCI-H460 lung): 1.37 µM, 6.25 µM [sample A] and 6.56 µM [sample B] and > 100 µM [sample C]
TGI (HCT-116 colon): 18 µM, > 242 µM [sample A] and > 100 µM [sample B]
GI50 (DMS 273 small cell lung): 4.6 nM [1 test] and 62.5 nM [mean of 2 tests]
TGI (DMS 273 small cell lung): 6.25 nM [1 test] and > 625 µM [mean of 2 tests]
TGI (NCI-H226 lung): 1.35 µM [sample A, mean of 3 tests] and 4.52 µM [sample A, mean of 5 tests] and > 100 µM [sample B, 1 test]
TGI (MALME-3M melanoma): 6.25 nM, > 87.3 µM, > 459 µM [sample A] and > 100 µM [sample B] and > 100 µM [sample C]
TGI (CAKI-1 renal): 35.1 µM, 145 nM [sample A] and > 100 µM [sample B] and > 100 µM [sample C]
TGI (SK-OV-3 ovarian): 5.06 µM, 27 µM [sample A] and > 100 µM [sample B] and > 100 µM [sample C]

CO[C@H]1C[C@H](O[C@H]2CC[C@]3(C=O)[C@H]4CC[C@]5(C)[C@@H](C6=CC(=O)OC6)CC[C@]5(O)[C@@H]4CC[C@]3(O)C2)O[C@H](C)[C@H]1O[C@@H]1O[C@H](CO)[C@@H](O)[C@H](O)[C@H]1O
TGI (NCI/ADR-RES ovarian): 0.0573 nM and > 100 µM
TGI (MDA-MB-435): 0.0823 nM and 25.1 nM
TGI (HT29 colon): 0.0785 nM and 101 nM
TGI (OVCAR-3 ovarian): 0.135 nM and 12.7 nM
TGI (UO-31 renal): 0.0673 nM and 87.5 nM
TGI (UACC-257 melanoma): 2.5 nM and 26.9 nM
TGI (KM12 colon): 0.316 nM and 490 nM
TGI (OVCAR-8 ovarian): 0.0766 nM and 22 nM
TGI (NCI-H226 lung): 0.204 nM and 18.1 nM
TGI (LOX IMVI melanoma): 0.0721 nM and 19.4 nM
TGI (CAKI-1 renal): 0.0425 nM and 11.4 nM
TGI (M14 melanoma): 0.0836 nM and 33.4 nM
TGI (UACC-62 melanoma): 0.141 nM and 17.7 nM
TGI (SF-268 CNS): 0.0434 nM and 18.6 nM
TGI (SNB-75 CNS): 0.113 nM and > 100 µM
TGI (SNB-19 CNS): 0.274 nM and 30.7 nM
TGI (U251 CNS): 0.106 nM and > 100 µM
